{"source": "the supplement of paper PMC8728848", "binders": {"B1": {"name": "GS13686A-pdi-553-26-553 (Parabacteroides distasonis) (protein)", "chain": "NENPDKPTDDVNYNMNEPRLASTLRGGLIIEGNVEQRLKPLQIDFYSQMTVDGGGWGTKNYIQDDEWNNLVWEEYLKQIASINIVIRSLTEKDKDAYANTIAFARIWRVYVHTLAADKFGPMPFPAYEIVEANPPYKSLKDIYDEYFRELDAAINGFNDSAQPIFSDAGIDLIYKNDVSKWKRFANSLRLRLAVRLTEVDQEKCIAEANAAISSPAGLISDKADNAYMPPKADGSWGQDYNYTMFQITWSGPICMSKSVEKLVTNIGGVAWPQGVVNQTSGVAVSSVHPEKVDPRAPKIFQPGIENGDWKGLVYGPKAEEANTGIYQSKQCAELGFIIKDGYPYKSRPYDLFLSEEVHFLKAELYARGFIAGDAKSEYEAGVRASFATWGVTSEVDDYLTSTEKNEAGTSARYDDQQGAGNTALEKIITQKYIAGIPDLAQEGWNDKRRLNLPRLDVAVYRDQAVYNNNDKDILKSANFIKRMRYPTKESLINATEYEKGKSMLGGKGDIVSTPLWWDKNSNYCTSSK"}}, "test_in_all_cases": "glycan array binding signal (z-score within array); higher = stronger binding", "details_in_all_cases": "glycan notation: IUPAC condensed, linker removed", "key": {"[1]": {"target": "Gal(b1-3)[Fuc(a1-4)]GlcNAc(b1-6)GalNAc", "outline": "(§1)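 The binding signal is a Z-score computed within each array. Data were drawn from 3228 arrays in the Consortium for Functional Glycomics database, restricted to those with a known protein sequence. Scores were averaged over arrays of the same protein sequence at different concentrations or buffers, and over linkers, and negative values can be taken as non-binding.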"}, "[2]": {"target": "Gal(b1-3)[GlcNAc(b1-6)]GalNAc", "outline": "as §1"}, "[3]": {"target": "Gal(b1-3)[Neu5Ac(a2-6)]GalNAc", "outline": "as §1"}, "[4]": {"target": "Gal(b1-3)[Neu5Ac(a2-6)]GlcNAc(b1-4)Gal(b1-4)Glc", "outline": "as §1"}, "[5]": {"target": "Gal(b1-3)[Neu5Ac(b2-6)]GalNAc", "outline": "as §1"}, "[6]": {"target": "Gal(b1-4)Gal", "outline": "as §1"}, "[7]": {"target": "Gal(b1-4)GalNAc(a1-3)[Fuc(a1-2)]Gal(b1-4)GlcNAc", "outline": "as §1"}, "[8]": {"target": "Gal(b1-4)GalNAc(b1-3)[Fuc(a1-2)]Gal(b1-4)GlcNAc", "outline": "as §1"}, "[9]": {"target": "Gal(b1-4)Glc", "outline": "as §1"}, "[10]": {"target": "Gal(b1-4)Glc6S", "outline": "as §1"}, "[11]": {"target": "Gal(b1-4)GlcNAc", "outline": "as §1"}, "[12]": {"target": "Gal(b1-4)GlcNAc(a1-6)Gal(b1-4)GlcNAc", "outline": "as §1"}, "[13]": {"target": "Gal(b1-4)GlcNAc(b1-2)Man", "outline": "as §1"}, "[14]": {"target": "Gal(b1-4)GlcNAc(b1-2)Man(a1-3)Man(b1-4)GlcNAc(b1-4)GlcNAc", "outline": "as §1"}, "[15]": {"target": "Gal(b1-4)GlcNAc(b1-2)Man(a1-3)[Gal(b1-4)GlcNAc(b1-2)Man(a1-6)]Man(b1-4)GlcNAc(b1-4)GlcNAc", "outline": "as §1"}, "[16]": {"target": "Gal(b1-4)GlcNAc(b1-2)Man(a1-3)[Gal(b1-4)GlcNAc(b1-2)Man(a1-6)]Man(b1-4)GlcNAc(b1-4)[Fuc(a1-6)]GlcNAc", "outline": "as §1"}, "[17]": {"target": "Gal(b1-4)GlcNAc(b1-2)Man(a1-3)[Gal(b1-4)GlcNAc(b1-2)Man(a1-6)][Gal(b1-4)GlcNAc(b1-4)]Man(b1-4)GlcNAc(b1-4)[Fuc(a1-6)]GlcNAc", "outline": "as §1"}, "[18]": {"target": "Gal(b1-4)GlcNAc(b1-2)Man(a1-3)[Gal(b1-4)GlcNAc(b1-2)Man(a1-6)][GlcNAc(b1-4)]Man(b1-4)GlcNAc(b1-4)[Fuc(a1-6)]GlcNAc", "outline": "as §1"}, "[19]": {"target": "Gal(b1-4)GlcNAc(b1-2)Man(a1-3)[GlcNAc(b1-2)Man(a1-6)]Man(b1-4)GlcNAc(b1-4)GlcNAc", "outline": "as §1"}, "[20]": {"target": "Gal(b1-4)GlcNAc(b1-2)Man(a1-3)[GlcNAc(b1-4)][Gal(b1-4)GlcNAc(b1-2)Man(a1-6)]Man(b1-4)GlcNAc(b1-4)GlcNAc", "outline": "as §1"}, "[21]": {"target": "Gal(b1-4)GlcNAc(b1-2)Man(a1-3)[Man(a1-6)]Man(b1-4)GlcNAc(b1-4)GlcNAc", "outline": "as §1"}, "[22]": {"target": "Gal(b1-4)GlcNAc(b1-2)Man(a1-6)Man(b1-4)GlcNAc(b1-4)GlcNAc", "outline": "as §1"}, "[23]": {"target": "Gal(b1-4)GlcNAc(b1-2)Man(a1-6)[GlcNAc(b1-2)Man(a1-3)]Man(b1-4)GlcNAc(b1-4)GlcNAc", "outline": "as §1"}, "[24]": {"target": "Gal(b1-4)GlcNAc(b1-2)Man(a1-6)[Man(a1-3)]Man(b1-4)GlcNAc(b1-4)GlcNAc", "outline": "as §1"}, "[25]": {"target": "Gal(b1-4)GlcNAc(b1-2)[Gal(b1-4)GlcNAc(b1-4)]Man(a1-3)[Gal(b1-4)GlcNAc(b1-2)Man(a1-6)]Man(b1-4)GlcNAc(b1-4)GlcNAc", "outline": "as §1"}, "[26]": {"target": "Gal(b1-4)GlcNAc(b1-2)[Gal(b1-4)GlcNAc(b1-4)]Man(a1-3)[Gal(b1-4)GlcNAc(b1-2)[Gal(b1-4)GlcNAc(b1-6)]Man(a1-6)]Man(b1-4)GlcNAc(b1-4)GlcNAc", "outline": "as §1"}, "[27]": {"target": "Gal(b1-4)GlcNAc(b1-2)[Gal(b1-4)GlcNAc(b1-4)]Man(a1-3)[GlcNAc(b1-4)][Gal(b1-4)GlcNAc(b1-2)Man(a1-6)]Man(b1-4)GlcNAc(b1-4)GlcNAc", "outline": "as §1"}, "[28]": {"target": "Gal(b1-4)GlcNAc(b1-2)[Gal(b1-4)GlcNAc(b1-4)]Man(a1-3)[GlcNAc(b1-4)][Gal(b1-4)GlcNAc(b1-2)[Gal(b1-4)GlcNAc(b1-6)]Man(a1-6)]Man(b1-4)GlcNAc(b1-4)GlcNAc", "outline": "as §1"}, "[29]": {"target": "Gal(b1-4)GlcNAc(b1-2)[Gal(b1-4)GlcNAc(b1-6)]Man(a1-6)[Gal(b1-4)GlcNAc(b1-2)Man(a1-3)]Man(b1-4)GlcNAc(b1-4)GlcNAc", "outline": "as §1"}, "[30]": {"target": "Gal(b1-4)GlcNAc(b1-2)[Gal(b1-4)GlcNAc(b1-6)]Man(a1-6)[Gal(b1-4)GlcNAc(b1-2)Man(a1-3)]Man(b1-4)GlcNAc(b1-4)[Fuc(a1-6)]GlcNAc", "outline": "as §1"}, "[31]": {"target": "Gal(b1-4)GlcNAc(b1-2)[Gal(b1-4)GlcNAc(b1-6)]Man(a1-6)[GlcNAc(b1-4)][Gal(b1-4)GlcNAc(b1-2)Man(a1-3)]Man(b1-4)GlcNAc(b1-4)GlcNAc", "outline": "as §1"}, "[32]": {"target": "Gal(b1-4)GlcNAc(b1-2)[Gal(b1-4)GlcNAc(b1-6)]Man(a1-6)[GlcNAc(b1-4)][Gal(b1-4)GlcNAc(b1-2)[Gal(b1-4)GlcNAc(b1-4)]Man(a1-3)]Man(b1-4)GlcNAc(b1-4)[Fuc(a1-6)]GlcNAc", "outline": "as §1"}, "[33]": {"target": "Gal(b1-4)GlcNAc(b1-3)Gal(b1-3)GalNAc", "outline": "as §1"}, "[34]": {"target": "Gal(b1-4)GlcNAc(b1-3)Gal(b1-3)GlcNAc", "outline": "as §1"}, "[35]": {"target": "Gal(b1-4)GlcNAc(b1-3)Gal(b1-4)Glc", "outline": "as §1"}, "[36]": {"target": "Gal(b1-4)GlcNAc(b1-3)Gal(b1-4)GlcNAc", "outline": "as §1"}, "[37]": {"target": "Gal(b1-4)GlcNAc(b1-3)Gal(b1-4)GlcNAc(b1-2)Man(a1-3)[Gal(b1-4)GlcNAc(b1-3)Gal(b1-4)GlcNAc(b1-2)Man(a1-6)]Man(b1-4)GlcNAc(b1-4)GlcNAc", "outline": "as §1"}, "[38]": {"target": "Gal(b1-4)GlcNAc(b1-3)Gal(b1-4)GlcNAc(b1-2)Man(a1-3)[Gal(b1-4)GlcNAc(b1-3)Gal(b1-4)GlcNAc(b1-2)Man(a1-6)]Man(b1-4)GlcNAc(b1-4)[Fuc(a1-6)]GlcNAc", "outline": "as §1"}}, "note": "The other results are listed elsewhere or left out."}
{"binder": "B1", "values": [{"measurement": "glycan array binding signal (z-score)", "setting": "[1]", "result": 0.527}, {"measurement": "glycan array binding signal (z-score)", "setting": "[2]", "result": -0.294}, {"measurement": "glycan array binding signal (z-score)", "setting": "[3]", "result": 0.249}, {"measurement": "glycan array binding signal (z-score)", "setting": "[4]", "result": -0.303}, {"measurement": "glycan array binding signal (z-score)", "setting": "[5]", "result": 1.03}, {"measurement": "glycan array binding signal (z-score)", "setting": "[6]", "result": 0.323}, {"measurement": "glycan array binding signal (z-score)", "setting": "[7]", "result": -0.285}, {"measurement": "glycan array binding signal (z-score)", "setting": "[8]", "result": -0.325}, {"measurement": "glycan array binding signal (z-score)", "setting": "[9]", "result": -0.275}, {"measurement": "glycan array binding signal (z-score)", "setting": "[10]", "result": 0.015}, {"measurement": "glycan array binding signal (z-score)", "setting": "[11]", "result": -0.162}, {"measurement": "glycan array binding signal (z-score)", "setting": "[12]", "result": 0.257}, {"measurement": "glycan array binding signal (z-score)", "setting": "[13]", "result": -0.001}, {"measurement": "glycan array binding signal (z-score)", "setting": "[14]", "result": -0.119}, {"measurement": "glycan array binding signal (z-score)", "setting": "[15]", "result": -0.254}, {"measurement": "glycan array binding signal (z-score)", "setting": "[16]", "result": -0.043}, {"measurement": "glycan array binding signal (z-score)", "setting": "[17]", "result": -0.035}, {"measurement": "glycan array binding signal (z-score)", "setting": "[18]", "result": 1.35}, {"measurement": "glycan array binding signal (z-score)", "setting": "[19]", "result": -0.261}, {"measurement": "glycan array binding signal (z-score)", "setting": "[20]", "result": -0.013}, {"measurement": "glycan array binding signal (z-score)", "setting": "[21]", "result": -0.017}, {"measurement": "glycan array binding signal (z-score)", "setting": "[22]", "result": 0.663}, {"measurement": "glycan array binding signal (z-score)", "setting": "[23]", "result": 0.027}, {"measurement": "glycan array binding signal (z-score)", "setting": "[24]", "result": -0.04}, {"measurement": "glycan array binding signal (z-score)", "setting": "[25]", "result": -0.193}, {"measurement": "glycan array binding signal (z-score)", "setting": "[26]", "result": 2.01}, {"measurement": "glycan array binding signal (z-score)", "setting": "[27]", "result": -0.074}, {"measurement": "glycan array binding signal (z-score)", "setting": "[28]", "result": 0.172}, {"measurement": "glycan array binding signal (z-score)", "setting": "[29]", "result": 0.115}, {"measurement": "glycan array binding signal (z-score)", "setting": "[30]", "result": 0}, {"measurement": "glycan array binding signal (z-score)", "setting": "[31]", "result": 0.113}, {"measurement": "glycan array binding signal (z-score)", "setting": "[32]", "result": 0.178}, {"measurement": "glycan array binding signal (z-score)", "setting": "[33]", "result": -0.06}, {"measurement": "glycan array binding signal (z-score)", "setting": "[34]", "result": -0.133}, {"measurement": "glycan array binding signal (z-score)", "setting": "[35]", "result": 0.145}, {"measurement": "glycan array binding signal (z-score)", "setting": "[36]", "result": -0.119}, {"measurement": "glycan array binding signal (z-score)", "setting": "[37]", "result": 0.146}, {"measurement": "glycan array binding signal (z-score)", "setting": "[38]", "result": 0.153}]}
